# Among all 350,000 compounds or so, about 9,900 (2.8%) were called active. The inconclusive results got no clear call from the source; some entries with a clear call stand among them for comparison. The call rests on the fitted dose curve; in most records, active means well fitted activation curve with a large enough effect; inconclusive means small, poorly fitted or top-dose-only effect; inactive means no such curve, though single readings can be large or run the other way. Potencies of inconclusive entries are left out as doubtful fits.
# Test: A quantitative high throughput screen for small molecules that induce DNA re-replication in MCF 10a normal breast cells. Further: nearly all actives have a fitted effect of over 50% in size.
# Conditions: MCF 10A DNA re-replication, Hoechst nuclear intensity, 48 h; series mostly up to 46.1 µM
# Potency means the concentration at half of the fitted maximal effect; tags describe the fitted curve by direction and shape.
row,Compound,Potency
1,COc1cccc(/C=C/c2ccc3ccccc3n2)c1OC(C)=O,"inconclusive [activator, single point]"
2,O=C(CN1CCOCC1)Nc1ncc(Cc2cccc(Cl)c2)s1,"inconclusive [activator, single point]"
3,Cc1onc(-c2ccccc2Cl)c1C(=O)N(C)C1CCCCC1,inactive
4,Nc1ccc(C(=O)OCC(=O)N2CCc3ccccc3C2)cc1[N+](=O)[O-],"inconclusive [activator, full curve, poor fit]"
5,COc1ccc(C2=NN(c3ccccc3)C(c3cn(CCC(=O)O)nc3-c3ccccc3)C2)cc1 (stereo not drawn),"inconclusive [activator, single point]"
6,O=C(CN1CCN(C(=O)N2CCOCC2)CC1)Nc1cc(Cl)ccc1Cl,inactive
7,Cc1ccc(C(C)C)c(OC/C(O)=C(\C#N)c2nc3ccccc3[nH]2)c1,active: 16.4 µM
8,COc1ccc(OC)c(N(CC(=O)NC2CCCCCC2)S(=O)(=O)c2ccc(C)cc2)c1,"inconclusive [activator, single point]"
9,COC(C[C@H]1O[C@@H]1C(=O)[C@H](C)OCc1ccccc1)OC,inactive
10,CCOC(=O)c1c(-c2ccc(OC)cc2)csc1NC(=O)CCN1CCOCC1,"inconclusive [activator, partial curve, poor fit]"
11,CCOc1cc(S(=O)(=O)N2CCC(C(N)=O)CC2)ccc1F,"inconclusive [activator, partial curve, poor fit]"
12,COc1cccc(CC(NC(C)=O)C(=O)NC2CCN(C(=O)c3ccc(Cl)cc3)CC2)c1OC (stereo not drawn),inactive
13,Cc1ccc(S(=O)(=O)c2cc3c(=O)n4ccccc4nc3n(CCCN3CCOCC3)c2=N)cc1C,active: 23.1 µM
14,CC(=Nc1ccccc1O)c1sc2ccccc2c1O,"inconclusive [activator, partial curve]"
15,CCOC(=O)CSc1nnc(Cc2ccc(OC)cc2)n1-c1ccccc1,"inconclusive [activator, partial curve, poor fit]"
16,CCOc1nc(NCCN2CCOCC2)nc(Nc2ccc([N+](=O)[O-])cc2)n1,inactive
17,Cc1oc2c(CN3CCCC(C)C3)c(O)ccc2c(=O)c1-c1ccccc1 (stereo not drawn),inactive
18,O=C1C2CCCCN2C(=O)N1CCCCN1CCN(c2cccc(C(F)(F)F)c2)CC1 (stereo not drawn),"inconclusive [activator, single point]"
19,Cc1occc1C(=O)N1CCC2(CCCN(Cc3ccc(F)c(F)c3)C2)C1 (stereo not drawn),"inconclusive [activator, full curve, poor fit]"
20,COCCn1c(=O)[nH]c(=O)c2cc(C(=O)c3cc(Cl)ccc3O)cnc21,"inconclusive [activator, partial curve, poor fit]"
21,O=[N+]([O-])c1ccc(/C=N/N=C/c2ccc([N+](=O)[O-])o2)o1,active: 2.59 µM
22,C[C@H](O)[C@@H]1C(=O)N2CCc3ccc(N4CCN(C)CC4)cc3[C@@H]2C[C@@H]1N(C)C(=O)Nc1cc(Cl)cc(Cl)c1,"inconclusive [activator, single point]"

row,Compound,Potency
1,Cc1cc(C)c(C)c(OCCNCc2ccccc2)c1,"inconclusive [activator, single point]"
2,CCOC(=O)c1c(NC(=O)CN(CC)CC)sc2c1CCC2,"inconclusive [activator, partial curve, poor fit]"
3,COc1cc2ccnc(Cc3cccc(OC)c3OC)c2cc1OC,"inconclusive [activator, partial curve, poor fit]"
4,COc1ccc(C(=O)NC2CC(C)(C)Cc3c2cnn3-c2ccccc2C)c(OC)c1OC (stereo not drawn),"inconclusive [activator, partial curve, poor fit]"
5,O=C(c1c(Cl)nc2sccn12)N(C(=O)c1c(Cl)nc2sccn12)c1ccc(Cl)cn1,inactive
6,Nc1cccc2[nH]c(=O)c3ccccc3c12,inactive
7,Cc1cc(Cl)n2c(nc3ccccc32)c1C#N,"inconclusive [activator, partial curve, poor fit]"
8,Cc1ccccc1C(=NC(=O)c1ccccc1)c1ccccc1,inactive
9,CCOc1ccc(-c2nnc(NC(=O)c3ccc(OCC(C)C)c(OC)c3)o2)cc1,"inconclusive [activator, partial curve, poor fit]"
10,CN(C)C(=S)N=c1ssc(=S)n1Cc1cccnc1,active: 11.6 µM
11,COCCCN1C(=O)C2C(C(=O)Nc3cc(C)cc(C)c3)C3C=CC2(O3)C1C(=O)NC1CCCCC1 (stereo not drawn),inactive
12,Fc1cccc(-c2cc3nc4c(c(NCc5ccco5)n3n2)CCCC4)c1,inactive
13,O=Nc1c(O)n(Cc2ccc(Cl)c(Cl)c2)c2ccccc12,"inconclusive [activator, single point]"
14,COc1ccc(-c2cnc(N)nc2-c2ccc(OC)cc2)cc1,"inconclusive [activator, single point]"
15,COc1ccc(CCNC(=O)c2c(C)nn(-c3ccccc3)c2Cl)cc1,"inconclusive [activator, single point]"
16,CCC(C)NC(=O)CSc1ccc(S(=O)(=O)N(C)C2CCCCC2)cn1 (stereo not drawn),inactive
17,C#CCOCCOCCOCCNc1nc(N2CCN(C(=O)CCCCCCCCCCNC(=O)[C@H](CCCCN)n3cc(CCCC(=O)O)nn3)CC2)nc(N2CCN(C(=O)CCCCCCCCCCNC(=O)[C@H](CCCN=C(N)N)n3cc(C[C@@H](C)CC)nn3)CC2)n1,"inconclusive [activator, single point]"
18,COc1ccc(N/C=C(\C=C\C#N)S(=O)(=O)c2ccccc2)cc1,active: 3.66 µM
19,COc1cc(OC)c2c(-c3cccc(-c4ccc(CO)cc4)c3)cc(=O)oc2c1,"inconclusive [activator, full curve, poor fit]"
20,Cc1cccc(Nc2nnc(SCC(=O)Nc3cccnc3Cl)s2)c1,inactive
21,Cc1ccc(-c2cc3nc(-c4ccccc4)cc(N4CCC5(CC4)OCCO5)n3n2)cc1,"inconclusive [activator, partial curve, poor fit]"

# Reference: PubChem BioAssay AID624296 (National Center for Advancing Translational Sciences (NCATS), 2012)
